Results on 1 compound are retold here after PubChem BioAssay (NCI).

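Method: 48-hour compound exposure of cells in 96-well plates, five concentrations, linear interpolation of endpoints. TGI: total growth inhibition.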 The source holds more than one record for some entries. The other results are left out here. There may be further records. A record mostly stands for its own series of concentrations, not given here; some values may only mark the edge of a range.

Experiment in all cases: NCI anticancer screen, dose series, 48 h
For test [1], the system named is CAKI-1 renal.
Test [2] has as its system DU-145 prostate.
Test [3] deals with HCT-116 colon.
The subject of test [4] is MCF7 breast.
For test [5], the system named is SK-OV-3 ovarian.
The subject of test [6] is TK-10 renal.

Consider `CCC(C)SC1SCC2C(=O)N(C)C3(CC3C)C(=O)OCC(NC(=O)c3nc4ccccc4cc3O)C(=O)NC(C)C(=O)N(C)C1C(=O)N(C)C1(CC1C)C(=O)OCC(NC(=O)c1nc3ccccc3cc1O)C(=O)NC(C)C(=O)N2C` (stereo unspecified), for which the TGI in test [1] is 0.422 nM and 7.8 µM; in test [2], 64.5 nM and 10.6 µM; in test [3] it was 19.1 nM and 1.93 µM; in test [4] it was 4.66 nM and 31.5 µM; in test [5], 65.1 nM and 2.67 µM; in test [6], 4.63 µM [mean of 2 tests] and 40.1 nM [mean of 3 tests].
